The whole screen tested about 310,000 compounds, of which about 2,200 (0.71%) showed an effect of 50% or more. Effects have a minus sign here. The list shows a part of the results.

The experiment deals with human ether-à-go-go-related gene (hERG) potassium channel (human, UniProt Q12809). The experiment in a line: primary screen, population patch clamp on CHO cells stably expressing hERG.
Sequence of human ether-à-go-go-related gene (hERG) potassium channel (Q12809 whole entry, looked up): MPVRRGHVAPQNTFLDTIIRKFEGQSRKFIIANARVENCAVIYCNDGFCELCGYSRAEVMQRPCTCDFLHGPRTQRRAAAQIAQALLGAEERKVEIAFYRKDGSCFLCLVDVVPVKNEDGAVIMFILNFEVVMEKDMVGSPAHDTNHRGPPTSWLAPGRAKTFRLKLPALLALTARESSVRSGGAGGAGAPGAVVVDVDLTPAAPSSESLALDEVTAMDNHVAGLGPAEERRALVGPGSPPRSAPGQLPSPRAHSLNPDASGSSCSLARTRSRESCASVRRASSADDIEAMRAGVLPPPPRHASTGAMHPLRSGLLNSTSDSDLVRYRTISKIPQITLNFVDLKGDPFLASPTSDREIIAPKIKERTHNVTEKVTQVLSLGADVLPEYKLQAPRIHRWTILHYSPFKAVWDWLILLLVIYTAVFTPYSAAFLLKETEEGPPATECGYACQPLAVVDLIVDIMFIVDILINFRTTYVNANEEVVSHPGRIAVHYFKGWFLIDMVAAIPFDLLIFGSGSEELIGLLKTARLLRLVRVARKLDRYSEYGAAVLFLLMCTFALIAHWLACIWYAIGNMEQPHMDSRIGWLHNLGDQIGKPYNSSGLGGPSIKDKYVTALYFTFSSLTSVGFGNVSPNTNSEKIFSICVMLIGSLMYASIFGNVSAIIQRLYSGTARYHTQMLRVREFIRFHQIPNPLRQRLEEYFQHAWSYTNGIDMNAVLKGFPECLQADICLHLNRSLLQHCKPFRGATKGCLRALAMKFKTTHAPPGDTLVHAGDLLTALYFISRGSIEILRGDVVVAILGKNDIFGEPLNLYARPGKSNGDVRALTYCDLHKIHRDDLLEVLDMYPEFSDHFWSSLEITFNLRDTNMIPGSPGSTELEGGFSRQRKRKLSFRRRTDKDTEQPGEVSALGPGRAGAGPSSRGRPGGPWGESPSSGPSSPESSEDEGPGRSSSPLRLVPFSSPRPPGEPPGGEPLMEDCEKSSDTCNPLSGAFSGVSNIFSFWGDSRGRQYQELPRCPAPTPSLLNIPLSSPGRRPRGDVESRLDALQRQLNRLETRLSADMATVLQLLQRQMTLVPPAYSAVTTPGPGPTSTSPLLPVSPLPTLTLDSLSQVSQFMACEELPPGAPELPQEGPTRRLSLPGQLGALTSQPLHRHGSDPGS
In the case of `O=C(Cc1cccs1)Nc1ccc(S(=O)(=O)N2CCCCC2)cc1`, the “hERG current change (%, negative = inhibition) at 1uM” value turned out to be 14.8%. In the case of `COc1ccc(C(=O)CC(CC(=O)c2ccc(OC)cc2)C(=O)O)cc1` it was 6.21%; in that of `CCOC(=O)c1[nH]c(C)c(C(=O)OCC(=O)NCc2ccc(OC)c(OC)c2)c1C`, -1.42%. In the case of `O=C(Cn1nc(C(=O)O)c2ccccc2c1=O)Nc1cc(C(F)(F)F)ccc1-n1cncn1` it was 8.16%; in that of `Cc1c(N(C(=O)CNC(=O)c2ccccc2)C2(C(=O)NC3CCCC3)CCCCC2)c(=O)n(-c2ccccc2)n1C`, 9.5%; in that of `CCc1nc2c(c(SC)nn2-c2ccccc2)c(N)c1C(=O)OC`, 4.25%. In the case of `O=C(Cc1ccccc1)Nc1ccc(NC(=S)NC(=O)c2ccccc2)cc1` it was 10.3%; in that of `Nc1nncn1C(=O)c1ccc(Cl)cc1Cl`, 4.79%; in that of `Br.O=C(CN1CCSC1=NCc1ccccc1)c1ccc(Cl)cc1`, -5.13%. Regarding `CSCc1ccc(C(=O)NCc2ccc(C)cc2)cc1`, the “hERG current change (%, negative = inhibition) at 1uM” value is given as 3.91%. In the case of `Cn1c(CCN2CCN(c3ccccn3)CC2)nc2cc(NC(=O)COc3ccccc3)ccc21` it was -67%; in that of `O=C(Cn1nnc(-c2ccccc2F)n1)Nc1ccc(C(=O)N2CCOCC2)cc1`, -0.348%. In the case of `COc1cc(NS(=O)(=O)c2ccc(NC(=S)NC(=O)COc3ccccc3OC)cc2)nc(OC)n1` it was 3.81%; in that of `COc1ccccc1NNC(=O)c1cc(C(C)(C)C)nn1Cc1ccccc1`, -4.72%; in that of `CN1CCN(c2ccc(Cl)cc2NC(=O)c2ccc(S(=O)(=O)N3CCCCCC3)cc2)CC1`, 12.3%. On to `COc1cc(/C=N/NC(=O)c2cccc(S(=O)(=O)N3CCCC3)c2)cc(OC)c1O`, for which the “hERG current change (%, negative = inhibition) at 1uM” value stood at 11.8%. For the compound `CC(=O)c1cccc(NS(=O)(=O)c2cc(OCC(N)=O)c(C)cc2Cl)c1`, the “hERG current change (%, negative = inhibition) at 1uM” value is 5.36%.

As for `COc1cc(/C=N/NC(=O)c2ccc3nc[nH]c3c2)ccc1O`, the “hERG current change (%, negative = inhibition) at 1uM” value is 7.6%. Regarding `COc1ccc(CC(=O)O/N=C(\N)Cc2ccc(OC)cc2)cc1`, the “hERG current change (%, negative = inhibition) at 1uM” value is on record as 5.29%. In the case of `Cc1ccc(C(=O)Nc2ccc(C(=O)N/N=C/c3ccccn3)cc2)cc1` it was 14.6%. Consider `Cc1ccc(S(=O)(=O)N(C)/N=C2/C(=O)N(CC(=O)O)c3ccccc32)cc1`, for which the “hERG current change (%, negative = inhibition) at 1uM” value is 14%. Next, `Cc1cccc2sc(NC(=O)CCn3cccc3)nc12`: 16.2%; `Cc1cc(OC2CCCCC2)nc(NCc2ccccc2)n1`: 9.71%. Consider `O=C1OC(c2ccc(Cl)cc2)=C/C1=C/c1cccnc1`, for which the “hERG current change (%, negative = inhibition) at 1uM” value is listed as 15.8%. Turning to `CCCCCN(C(=O)CCC(=O)OCc1ccc(Cl)cc1Cl)c1c(N)n(CCCC)c(=O)[nH]c1=O`, the “hERG current change (%, negative = inhibition) at 1uM” value was -7.18%.

As for `C/C(=N\Oc1cccc(F)n1)c1ccc(Cl)cc1Cl`, the “hERG current change (%, negative = inhibition) at 1uM” value is on record as 16%. `COCCCNC(=O)CCc1c(C)nc2c(c(C)nn2-c2ccccc2)c1C`: the “hERG current change (%, negative = inhibition) at 1uM” value is 8.19%. `COc1cccc(/C=N/NC(=O)c2ccc(=O)[nH]n2)c1O`: the “hERG current change (%, negative = inhibition) at 1uM” value was 12.3%.

Regarding `Cc1ccccc1OCC(=O)OCC(=O)c1ccc(OCc2ccccc2)cc1`, the “hERG current change (%, negative = inhibition) at 1uM” value stood at 14%.

`CC1CC(C)(C)NC(=S)N1CC(=O)N1CCN(Cc2ccccc2)CC1` (stereo not drawn): the “hERG current change (%, negative = inhibition) at 1uM” value is reported as 11.6%. On to `COc1ccc(-c2nc(NC(=O)c3ccccc3)sc2-c2ccc([N+](=O)[O-])cc2)cc1`, for which the “hERG current change (%, negative = inhibition) at 1uM” value came out at 8.19%. Turning to `CN(C)CCCNc1nc2sc3c(c2c(=O)n1CCc1ccccc1)CCCCC3`, the “hERG current change (%, negative = inhibition) at 1uM” value is 12.3%. Next, `CCC(C)NC(=O)c1ccccc1NC(=O)c1ccccc1N(C)S(C)(=O)=O` (stereo not drawn): 0.0328%; `CC(C)(C)CC(C)(C)NC(=O)c1ccccc1`: 10.4%; `Cc1c(C(N)=O)c(-c2ccccc2)nn1-c1ccccc1`: -5.91%.

`Cc1ccc(OCC(O)CN2CCN(CC(O)COC(C)C)CC2)c(C(C)(C)C)c1` (stereo not drawn): the “hERG current change (%, negative = inhibition) at 1uM” value was -47.8%. For `CCOC(=O)N1CCN(S(=O)(=O)c2cn(C)c(=O)n(C)c2=O)CC1`, the “hERG current change (%, negative = inhibition) at 1uM” value is recorded as 14.6%.

`O=C(NC(=S)NC1CCS(=O)(=O)C1)c1cccc([N+](=O)[O-])c1` (stereo not drawn): the “hERG current change (%, negative = inhibition) at 1uM” value came to 12.8%. In the case of `O=C(NC(=S)N1CCc2ccccc21)c1ccc(Br)o1`, the “hERG current change (%, negative = inhibition) at 1uM” value was found to be 14.2%.

`O=C(CCCCCN1C(=O)CCC1=O)NCc1ccccc1`: the “hERG current change (%, negative = inhibition) at 1uM” value was determined as 7.79%. In the case of `NC(=O)c1ccc(-c2nnn(CC(=O)N(C3CCCC3)C3CCS(=O)(=O)C3)n2)cc1` (stereo not drawn) it was 2.21%. In the case of `CCCc1cc(=O)[nH]c(SCC(=O)N(C)Cc2ccccc2)n1` it was 7.92%; in that of `O=S(=O)(Nc1ccc(Cl)cc1)c1ccc(N2CCOCC2)c(NC(=S)NC2CC2)c1`, 18.8%; in that of `C=C(C)CNC(=S)N1CCNC(=O)C1CC(=O)OC` (stereo not drawn), 16%. With `CCOC(=O)c1c(NC(=O)COC(=O)Cn2c(C(F)(F)F)nc3ccccc32)sc(C)c1C`, the “hERG current change (%, negative = inhibition) at 1uM” value was 3.9%. Next, `Cc1nn(CC(=O)Nc2ccc3c(c2)nc(CCN2CCCCC2)n3C)c(=O)c2ccccc12`: -7.84%. As for `Cc1cccc(NC(=S)N2CCC(c3nc4ccccc4o3)CC2)c1`, the “hERG current change (%, negative = inhibition) at 1uM” value was determined as 5.83%.

`O=C(OCC(=O)N1CCc2ccccc21)c1n[nH]c(=O)c2ccccc12`: the “hERG current change (%, negative = inhibition) at 1uM” value stood at 18.1%. Next, `COC(=O)c1cc(OC)c(OC)cc1NC(=O)C1CCCO1` (stereo not drawn): -5%; `c1ccc(-n2ccnc2)cc1`: 15.2%. With `CCCc1n[nH]c2c1/C(=N\O)CCC2`, the “hERG current change (%, negative = inhibition) at 1uM” value was 15.7%. Next, `O=C(COC(=O)c1ncc(Cl)c(Cl)c1Cl)NC1CCCCCC1`: 13.8%; `CCCC(=O)OCC(=O)Nc1ccc2c(c1)OCO2`: 14.4%; `CCN(CC(=O)NCc1ccc(F)cc1)CC(=O)NC1CCCC1`: 8.36%. In the case of `COc1ccccc1N1CCN(C(=O)C2CCC(CNS(=O)(=O)c3ccc(NC(C)=O)cc3)CC2)CC1` (stereo not drawn) it was 8.27%; in that of `Cc1cc(C)nc(NC(=O)Nc2ccccc2C(F)(F)F)n1`, 10.4%; in that of `C[C@@H]1CCC[C@]2(O[C@@H](CCO)C[C@H](O)[C@H]2O)O1`, 8.84%. Next, `C/C(=N\NS(=O)(=O)c1ccccc1)c1cccc(NC(=O)c2cccc(Cl)c2)c1`: 2.61%. Consider `CCCN1CCN(CCCNC(=O)c2ccc(CS(=O)c3ccccc3C)o2)CC1` (stereo not drawn), for which the “hERG current change (%, negative = inhibition) at 1uM” value was determined as 9.22%.

In the case of `Cc1ccc(S(=O)(=O)N2CCCC2C(=O)Nc2nccs2)cc1` (stereo not drawn), the “hERG current change (%, negative = inhibition) at 1uM” value was 4.24%. `COc1ccc(CNc2ncc(-c3cccc([N+](=O)[O-])c3)n2C)c(OC)c1OC.O=C(O)C(=O)O`: the “hERG current change (%, negative = inhibition) at 1uM” value is listed as -16%. In the case of `COc1cc(C(=O)N2CCN(CCCc3ccccc3)CC2)cc(OC)c1OC` it was 3.21%; in that of `CCCn1c(SC(C)C(=O)NCC2CCCO2)nc2cc(Cl)ccc2c1=O` (stereo not drawn), 11.7%.

Regarding `S=c1[nH]nc(-c2cc(-c3ccsc3)n[nH]2)n1-c1cccc2ccccc12`, the “hERG current change (%, negative = inhibition) at 1uM” value is on record as -6.75%. In the case of `CCN(CC)C(=O)c1ccc(NC(=O)Nc2ccccc2F)cc1` it was -7.85%; in that of `Cc1ccc(C(=O)N2CCCCCC2)cc1Br`, 5.77%; in that of `Cc1ccc(CNC(=O)C2CCC(=O)N(Cc3ccccc3F)C2)s1` (stereo not drawn), 3.61%.

With `CC(C)C(=O)Nc1c2c(nn1-c1ccccc1)CSC2`, the “hERG current change (%, negative = inhibition) at 1uM” value was 11.8%. In the case of `CN(CCOc1ccc(-c2ccn(S(=O)(=O)c3ccc(Cl)cc3)n2)cc1)c1ccccn1` it was 17.3%; in that of `COc1ccccc1OCC(=O)Nc1ccc(O)cc1C(=O)O`, 5.8%; in that of `CC1(C(=O)NCC2CC2)C=CC2(CCCCC2)N1C(=O)c1ccccc1` (stereo not drawn), -9.68%.

Consider `COc1ccc(-c2c(-c3cc(OC)cc(OC)c3)n(C)c3ccc(-c4cccc5[nH]ccc45)cc23)cc1`, for which the “hERG current change (%, negative = inhibition) at 1uM” value amounted to 11.5%.

Take `COc1ccccc1N1CCN(C(=O)/C=C/c2cccc([N+](=O)[O-])c2)CC1`: the “hERG current change (%, negative = inhibition) at 1uM” value is reported as 5.45%. With `COc1ccc(Nc2nc(C)cc(-c3cc(-c4ccccc4)on3)n2)cc1`, the “hERG current change (%, negative = inhibition) at 1uM” value stood at 8.73%.

As to `CN(C(=O)c1ccc(NC(=O)Cc2ccccc2)cc1)c1ccccc1`, the “hERG current change (%, negative = inhibition) at 1uM” value came out at 5.65%. Next, `Cc1nc(Cl)c(C(=O)NCc2ccccc2)c(C)c1Cl`: 6.15%; `CC1Cc2ccccc2N1C(=O)COC(=O)CSc1ccc(F)cc1` (stereo not drawn): 0.833%; `CCOc1ccccc1NC(=O)c1ccc([N+](=O)[O-])cc1`: 12.6%. In the case of `CCC1Nc2ncnc(N3CCCCC3)c2N(Cc2ccc(Br)cc2)C1=O.O=C(O)C(F)(F)F` (stereo not drawn) it was -0.0934%; in that of `O=C(c1cc(F)ccc1F)C1CCCN(C(=O)c2ccc(F)cc2Cl)C1` (stereo not drawn), -5.11%. Next, `Cc1oc2c(c(C)cc3oc(=O)c(CC(=O)NCC(=O)NCC(=O)O)c(C)c32)c1C`: 12.5%; `CC(C)CNC(=S)NNC(=O)c1nn(C)cc1Cl`: 3.49%.

Take `CCn1c(=O)c(C(=O)NCCCO)c(O)c2ccccc21`: the “hERG current change (%, negative = inhibition) at 1uM” value is on record as 2.97%. In the case of `CN(c1ccccc1)S(=O)(=O)c1cccc(NC(=O)CN2CCCc3ccccc32)c1` it was 7.66%.

Turning to `Cc1c(NC2=CC(=O)CC(C)(C)C2)c(=O)n(-c2ccccc2)n1C`, the “hERG current change (%, negative = inhibition) at 1uM” value worked out at 4.34%. Regarding `COc1ccc(/C=C\c2onc(C)c2S(=O)(=O)N2CCC(C(=O)NCc3ccco3)CC2)cc1`, the “hERG current change (%, negative = inhibition) at 1uM” value is reported as 6.18%. Next, `O=C(COC(=O)Cc1ccsc1)Nc1ccc(S(=O)(=O)N2CCOCC2)cc1`: 11.8%.

Values taken from publication PMC4336329 (PLoS ONE, 2015).
